In all, about 1,800 sequences were measured (“median log2 fold change of GCK-ALFA target abundance (FLAG IP / Myc IP barcode read proportion)”: median about 0.14, lowest 2% from about -0.84 on). The list shows a part of the results.

T1: TRAF2, Q12933
T1 chain: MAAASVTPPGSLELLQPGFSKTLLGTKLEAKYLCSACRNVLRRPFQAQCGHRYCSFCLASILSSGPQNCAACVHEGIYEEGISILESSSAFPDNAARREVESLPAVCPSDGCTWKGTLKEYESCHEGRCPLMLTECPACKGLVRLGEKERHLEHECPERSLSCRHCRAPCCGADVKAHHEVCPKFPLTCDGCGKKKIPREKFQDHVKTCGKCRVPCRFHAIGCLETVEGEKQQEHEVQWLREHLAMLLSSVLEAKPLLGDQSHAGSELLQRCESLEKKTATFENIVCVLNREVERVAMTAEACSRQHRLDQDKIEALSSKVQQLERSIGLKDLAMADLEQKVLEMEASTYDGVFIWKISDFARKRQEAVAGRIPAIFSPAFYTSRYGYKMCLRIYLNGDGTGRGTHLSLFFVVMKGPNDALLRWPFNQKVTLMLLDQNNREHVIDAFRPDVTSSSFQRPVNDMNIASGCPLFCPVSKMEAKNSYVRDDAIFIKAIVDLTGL

B1: traf2_out_13_95_1159 (protein)
chain: SAELAKKIMEIADEMLDKAKEVLEELLKKAKAAGKLVEEVEEALHLAEHQSINEAIHKLEELAKKHPEFKEELEEAIEKLKELRREAGRRVAKLIKEEQE
B2: traf2_out_17_162_1509 (protein)
chain: SATAALEAEARAELAALRAEKAALKAKMANLDSLSKEELSDLLVEASEARRRALELAERLREHAAELGEERAAALIDEAEAIAEELQKIANEAYKELLKK
B3: traf2_out_13_95_1133 (protein)
chain: SAETAKKIMEIADKMLDEVEKILEELLKIFEKKGIGVEEIKEALYLARHQSINEAIAKLEELSKKYPEFKEELDKAIEEIKALREKAGKEVAEILKKEKE
B4: traf2_out_20_3_2162 (protein)
chain: SELEEEAEKAREEAIKLLEEAAKLADKETAERLKELKKKVEESKNLPYDDRLVVLSEVRREVRELAEEARAAGKEELAKVLEEAADALNRAMNLTYKIIE
B5: traf2_out_15_48_1347 (protein)
chain: DIEKLQETARKIADLADATRDEVAARLAELRAEATPEEAALLAEIRAAAESGATLRTVRGLLLAARPQFSPELAARLAELAERIDETIREMSRLYNETEK
B6: traf2_out_6_156_2377 (protein)
chain: TKEEILKKAKEKIEKEIKKLAEASEEKKIKYISEIAGAVYKALQALREAGASVEEIKKAVEELKKVAEEEAKKAGLPEDTINLLLSSINAVGEVALREAE
B7: traf2_out_11_155_720 (protein)
chain: SEKLKLNQELVNEIMAIADEADAELEAIIAEVAEEDPEVAAELRALLEANKDAGITTKLLLAARKLREAGYEEQAKRVEELLEKTQKKMNELYKEYEKKL
B8: traf2_out_14_149_1262 (protein)
chain: MTEEEINKKAAELAKKTAEALKEAIALLDAGKVEEAKKLLEELAKWLEEEGKKIGITPSSLFIIEEAIKALDTDLAEAKALLKRALDNAEALAEVYESKI
B9: traf2_out_20_38_2027 (protein)
chain: SEEEKEEEKLKKLIEVANEAYDEAEALIKELKAEGKSIEEIAEIAKEKIKEILEKEGLEEELKELKEDVDRVLNSPDAERLIARILARAVAKAEQKRLEK
B10: traf2_out_20_3_2078 (protein)
chain: SELEAELERELDRALALLRQAAARADPETAARLDALIARLRASRELSIEDRLVAISAVRREVRALAEEARAAGRADLAALLDAAADALNRAAQLAYEILE
B11: traf2_out_11_104_641 (protein)
chain: LTKEQARELNDFAMAQEDEARAVAADLAARLRALGEDEAAARVEAALADSGAGISTFRNLLEDLRPTLSPEAAAAADEAIERLEALQAKVSAKYNELEAK
B12: traf2_out_6_169_2498 (protein)
chain: SEEEKLKEEAKRHVERAKELLELAKTIYEQAKKNKDKSKIPVYVEALETMLNAAKHHYDEAIAAYEKLGNKEEAAKLKEEKEKTIKEMEEKLKEIKEMLK
B13: traf2_out_17_162_1635 (protein)
chain: SEVEEALERIEKELEELRKKTKEFEELAKEIEKLTPEELTDYLVEASEARRRALELMEELEELEEYIDPERREKLLEELEEIAEKLQRIANLFYKELEKK
B14: traf2_out_20_3_2209 (protein)
chain: EELKKELEKELEEALKLLKEAQKLADPETAKVLKELIKRLKESRKLSPEDALVELSEIRREVLLLRDEAEARGDEELAKVLEEAAEKLQRAMNLLYKIIE
B15: traf2_out_15_48_1361 (protein)
chain: STEDLRKTAREINDLIDATLDEVAKELKELLPKAKEENKPIITEAIETAENHRSINDVIALLDEAIEKSDPELAKKLEELRDRLLATKKEASKLFNETLK
B16: traf2_out_13_95_1077 (protein)
chain: SKETNEKIMEIADEMLDKVNEVLEELAEKVKDDPEMKAKVEEALHLATHRGINEAIHLLKKLAEENEEYKELLEEAIKKLEEIKEKAGKEVAKLLKEEEE
B17: traf2_out_5_63_2368 (protein)
chain: SEREKERKELTEEARRIEKVVREALKLSLEEAKKLVKEAIEEGLNINLIAGMFRAEARFLELQGGPEEEIEKARELAEYAEKLREEREAEEAAAAAAAAA
B18: traf2_out_13_95_1110 (protein)
chain: SKELAKKIMEISDKALDKADATLDALLAQLKASGKLAPEVEAALKAARKSTIRTAIHTLRELAEKYPEFKELFDAAIKELEAIKEEAGKEVAKLIKEEEE
B19: traf2_out_16_177_1446 (protein)
chain: ERDKLMDRLVILSHLRRAAELAVEGRLDEAREHLAKAREEAEEAGDEEGLELAERIEALIAEDTPEARAELAALARELQKEAQELAEEIEKLIKEEAEKE
B20: traf2_out_20_3_2137 (protein)
chain: EELKKELEKEKKKAIKLLKEAAKLADPETAEELKKLIKELKESEKLSPEDQLVKLSEIRRKVLRLAEEAKAAGKEELAKLLEKAAEELNKAMNLLMKIIE
B21: traf2_out_14_149_1253 (protein)
chain: SETEKKKKALKEAKKLMEEIKEILEKALKEGSTEVDKEKIKELVEKAKEILKKQGFVLGHLLAIEEMLETTKEWTLEKIKELKELVEKAAESLEVLAEML
B22: traf2_out_6_3_2525 (protein)
chain: SSESLRKDARKVLENMGITTAEQLLTLVTAEVNAVKKVASRPDFDRADVAGLRSVLALTRAMVEVAYEELPSVTEADKAEALALIADAEALVEAKAKELE
B23: traf2_out_15_17_1302 (protein)
chain: KLTPEQIKKEREAADRVLELSDRVTEEVLALVERLAARDPRAAPWLERVKAAARQSVRAALHVAREGAEALGDAEALAELERLWARYEEEVAKISKELNE
B24: traf2_out_13_95_1156 (protein)
chain: SKELAEKIMEIADEMLDRAEAVLEALLAQARAAGRLEEEVAEALHLARTRSINEAIHRLQELAAAHPEFAAELEAAIAELEALRREAGRKVAELIKEEKE
B25: traf2_out_11_169_891 (protein)
chain: EEAEKNRKIIDHALELNDEAVEKLKKYALELAKKAGLDEKEVEAIFEKNKGKSLSYVAAELIKYFRSKGKEDAAKAVEEKYEELKEEINKKSTAFIKSLE
B26: traf2_out_6_156_2376 (protein)
chain: TAAAILAAAEATIKAEIKELAKASEEKKIAHISRIAGAVYRALQALRDAGASVDELRAAGARLRATAEKAAKEAGLPQETRDLLLASIDAVTEVALREAA
B27: traf2_out_17_178_1700 (protein)
chain: SKEEIRKKISELTDELIDHADRYGTALLARLRAEGVLSPEELAALDAALASGSNRTLLATAEELIPRSAASPETRALLAEWRAETREIAKKIAEAYEKYE
B28: traf2_out_17_162_1645 (protein)
chain: MELEEEKEEIRRELEELEKRVEELEKKSENIEKYSKEELSDLIVEASEVKRRALELLQRIEELEDELEPEEYEELRSRAEEIIERAQEVANKFYKEYEKK
B29: traf2_out_12_187_971 (protein)
chain: SVEEELIEAARAALEQALRELEEAAPEDPRFRRFLERLREARELLARHPEVAADLAVAASLVLRAVRLRKAGLPEEEVERAAEEAERELEELLARLRALE

This experiment addresses T1, TRAF2, Q12933. Put plainly: median log2 fold change of GCK-ALFA target abundance (FLAG IP / Myc IP barcode read proportion) (log2 ratio); each designed protein is fused to an ALFA-tag nanobody in HEK293 cells to bring the named protein to FLAG-tagged glucokinase (GCK); Myc marks an untargeted standard; higher = target protein stabilised (more abundant). Conditions: target protein: 3xFLAG-MCP-GCK-ALFA reporter; HEK293 landing pad (RPLP). Put shortly:
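HEK293 landing-pad cells received a recombined binder library fused to the ALFA nanobody and were induced with 2 μg mL^−1 doxycycline, then transfected with a plasmid encoding a FLAG-tagged target and a Myc-tagged standard. Lysates were collected after 48 h for anti-FLAG and anti-Myc immunoprecipitation, and the circular RNA barcodes were reverse transcribed, amplified and sequenced. Target abundance for each binder is the median log2 ratio of FLAG to Myc barcode read proportions. Barcodes had to reach a proportion of at least 10^−7 in both replicates, each binder needed at least 3 barcodes per replicate, a pseudocount of 10^−6 was applied, and the two replicates were pooled.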
As for B1, the “median log2 fold change” value was -0.768. The result for B2 reads -0.000298. The result for B3 reads -0.0113; that for B4, 0.36; that for B5, 0.135. Regarding B6, the “median log2 fold change” value is 0.122. The figure for B7 is 0.356. The figure for B8 is 0.162. The result for B9 reads 0.114; that for B10, -0.0407. Consider B11, for which the “median log2 fold change” value amounted to 0.42. The result for B12 reads 0.3.

As for B13, the “median log2 fold change” value came out at 0.351.

Turning to B14, the “median log2 fold change” value is -0.0494. The figure for B15 is 0.281; for B16 it is -0.0213; for B17 it is -0.0547. The figure for B18 is 0.188; for B19 it is 0.289. The figure for B20 is 1.07; for B21 it is -0.0179. B22: the “median log2 fold change” value was -0.025. B23: the “median log2 fold change” value was 0.221. The result for B24 reads -0.645; that for B25, 0.13; that for B26, -0.0213. As to B27, the “median log2 fold change” value stood at 0.0128. For B28, the “median log2 fold change” value worked out at 0.0751. The result for B29 reads 0.246.

Values taken from the supplement of paper PMC12632987.
